Measurements as given in the supplement of paper PMC3334620.
Whole data set: some 33,000 sequences, median “E-score (-0.5 to 0.5)” near -0.035, cut for the highest 2% near 0.35. The list shows a part of the results.

Each sequence was assayed against T1, Pdr3 (UniProt P33200) (assay: PBM E-score (8-mer binding enrichment) (E-score (-0.5 to 0.5)); higher = stronger / more preferred TF binding; most listed sequences are background and not binding sites). Settings: protein concentration: 200 nM; construct: GST-full length.
T1 sequence: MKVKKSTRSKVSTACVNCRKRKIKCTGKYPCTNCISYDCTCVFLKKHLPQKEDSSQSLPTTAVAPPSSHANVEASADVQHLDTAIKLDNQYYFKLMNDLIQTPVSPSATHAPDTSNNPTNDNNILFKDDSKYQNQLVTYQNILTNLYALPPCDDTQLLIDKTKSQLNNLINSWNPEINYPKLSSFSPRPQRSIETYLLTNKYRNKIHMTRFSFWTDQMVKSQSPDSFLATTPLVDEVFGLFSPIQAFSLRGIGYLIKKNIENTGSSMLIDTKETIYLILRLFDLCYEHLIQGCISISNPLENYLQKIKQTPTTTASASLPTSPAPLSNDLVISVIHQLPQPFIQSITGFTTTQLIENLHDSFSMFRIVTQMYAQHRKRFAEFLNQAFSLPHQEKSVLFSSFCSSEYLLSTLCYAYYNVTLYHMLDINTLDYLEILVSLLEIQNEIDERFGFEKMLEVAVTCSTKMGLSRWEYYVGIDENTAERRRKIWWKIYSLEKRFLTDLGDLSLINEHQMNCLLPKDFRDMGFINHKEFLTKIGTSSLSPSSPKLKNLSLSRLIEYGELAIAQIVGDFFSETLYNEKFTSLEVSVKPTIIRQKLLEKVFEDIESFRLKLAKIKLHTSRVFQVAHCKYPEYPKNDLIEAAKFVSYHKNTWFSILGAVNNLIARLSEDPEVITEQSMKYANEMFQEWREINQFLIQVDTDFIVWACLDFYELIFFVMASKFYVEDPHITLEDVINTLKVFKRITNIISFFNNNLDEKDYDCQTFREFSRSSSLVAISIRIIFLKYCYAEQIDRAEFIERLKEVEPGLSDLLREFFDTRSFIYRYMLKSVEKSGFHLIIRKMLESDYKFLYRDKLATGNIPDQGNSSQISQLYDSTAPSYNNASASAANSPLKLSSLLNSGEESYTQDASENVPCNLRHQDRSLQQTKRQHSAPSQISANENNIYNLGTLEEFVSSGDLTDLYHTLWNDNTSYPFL
Procedure, shortened: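 PURExpress in vitro transcription/translation supplied GST-tagged yeast transcription factors, either full-length or DNA-binding domain. Applied at about 100-200 nM to universal all-10-mer Agilent arrays double-stranded by primer extension, the bound protein was detected with fluorescent anti-GST. E-scores, modified Wilcoxon-Mann-Whitney statistics, were given by the Universal PBM Analysis Suite to ungapped eight-base words pooled with their reverse complements after masliner normalisation.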
In the case of CAATGCCC, the “PBM E-score” value is reported as 0.136. In the case of AGGTGAAA, the “PBM E-score” value is reported as -0.106. For ACTCACAA, the “PBM E-score” value was -0.112. In the case of AATTCATG, the “PBM E-score” value is reported as 0.148. CCACAAGG was tested, and the “PBM E-score” value was -0.0411. In the case of GCGGATCC, the “PBM E-score” value is reported as 0.409. With CCACTAGC the “PBM E-score” value was -0.207. For CCATAGAG, the “PBM E-score” value was -0.107. GCCGTTCA was tested, and the “PBM E-score” value was 0.132. With GAGACCTA the “PBM E-score” value was -0.00406. ACCACAAT was tested, and the “PBM E-score” value was -0.0705. GAACGCGC was tested, and the “PBM E-score” value was 0.19. In the case of GCGACGAC, the “PBM E-score” value is reported as -0.144. AGAGTGGA was tested, and the “PBM E-score” value was -0.116. For GAAGTTGA, the “PBM E-score” value was 0.0408. In the case of AAGGGTAT, the “PBM E-score” value is reported as -0.098. CGACCGAA was tested, and the “PBM E-score” value was 0.0221. With CAGAGAAG the “PBM E-score” value was -0.0843. For GGAATAGA, the “PBM E-score” value was 0.219. GCCCGTAA was tested, and the “PBM E-score” value was 0.0221. With AGATCTAA the “PBM E-score” value was -0.253. AGAGTGCG was tested, and the “PBM E-score” value was -0.0211. In the case of AGAGGAAC, the “PBM E-score” value is reported as -0.066. With CTCCTCCA the “PBM E-score” value was -0.07. For ATGAATAG, the “PBM E-score” value was 0.0874. In the case of AGCGTTAG, the “PBM E-score” value is reported as -0.146. CCCTTAGG was tested, and the “PBM E-score” value was -0.244. With GTGAAAAA the “PBM E-score” value was 0.0595. CAATCGAC was tested, and the “PBM E-score” value was -0.203. In the case of ACGAGAGT, the “PBM E-score” value is reported as -0.124. GTTATTTA was tested, and the “PBM E-score” value was 0.0344. AGCTTAGC was tested, and the “PBM E-score” value was -0.115. With AAAGCTGA the “PBM E-score” value was -0.166. In the case of AGGTTTCC, the “PBM E-score” value is reported as 0.0123. In the case of AGGCTGAC, the “PBM E-score” value is reported as -0.122. With CCATAATC the “PBM E-score” value was -0.0573. For ATGCCGTG, the “PBM E-score” value was 0.125. In the case of AAGCTAGC, the “PBM E-score” value is reported as -0.0912. For ATGAACAG, the “PBM E-score” value was -0.105. With CAGGCGTC the “PBM E-score” value was -0.0862. ACTGACAG was tested, and the “PBM E-score” value was 0.0081. CCCACCTC was tested, and the “PBM E-score” value was -0.195. For GAGACAGC, the “PBM E-score” value was -0.00565. With AGCTTACG the “PBM E-score” value was -0.297. CGAAGTCC was tested, and the “PBM E-score” value was 0.0414. ATATACGC was tested, and the “PBM E-score” value was -0.0896. With TGCCCGCA the “PBM E-score” value was 0.246. GCCGCTGA was tested, and the “PBM E-score” value was 0.23. With AATGCTGA the “PBM E-score” value was -0.186. For GACCCTCA, the “PBM E-score” value was -0.138. In the case of GTATAAGA, the “PBM E-score” value is reported as -0.188. With CGCCTAAG the “PBM E-score” value was -0.251. For ATCGTGCG, the “PBM E-score” value was 0.164. CGAACTGA was tested, and the “PBM E-score” value was 0.0143. With CGCCACTA the “PBM E-score” value was -0.137. With CGGAGACG the “PBM E-score” value was 0.335. With TCCACAGA the “PBM E-score” value was -0.0602. In the case of GAACTCCA, the “PBM E-score” value is reported as 0.0704. With GCAGATAA the “PBM E-score” value was -0.0148. With AATTATGA the “PBM E-score” value was 0.045. CCAAGTCG was tested, and the “PBM E-score” value was -0.00288. For AGATCGCT, the “PBM E-score” value was 0.0793. ATTCAAAT was tested, and the “PBM E-score” value was 0.021. For CTCGCTAA, the “PBM E-score” value was -0.0585. AGGCAAAT was tested, and the “PBM E-score” value was 0.0679. With AAAAACAG the “PBM E-score” value was -0.139. With TCGACCCA the “PBM E-score” value was -0.122. For ATGCATGC, the “PBM E-score” value was -0.138. For AGCAATAA, the “PBM E-score” value was -0.15. With GACTTGCA the “PBM E-score” value was -0.055. In the case of AGACACCA, the “PBM E-score” value is reported as -0.0252. ACCCCGCA was tested, and the “PBM E-score” value was 0.156. For CCTGTTGA, the “PBM E-score” value was -0.144. With AGAGTACA the “PBM E-score” value was -0.207. In the case of AGTTGTAT, the “PBM E-score” value is reported as -0.0418. For ATTACGGG, the “PBM E-score” value was -0.0819. In the case of GAGCGTTA, the “PBM E-score” value is reported as -0.14. For ATTGGCAC, the “PBM E-score” value was -0.108. In the case of GATACGGA, the “PBM E-score” value is reported as 0.357. With CTACGGAC the “PBM E-score” value was 0.0596. TAAGATCA was tested, and the “PBM E-score” value was -0.267. For GCAAGCCA, the “PBM E-score” value was -0.215. For GAATATGC, the “PBM E-score” value was -0.0675. With AGAACTAT the “PBM E-score” value was -0.0311. ACCCGAGC was tested, and the “PBM E-score” value was 0.245. In the case of TGTATCAA, the “PBM E-score” value is reported as 0.0329.
